Among all 310,000 compounds or so, about 14,000 (4.5%) showed an effect of 50% or more. The effect is printed as a negative number. Some of the results follow.
Target: human ether-à-go-go-related gene (hERG) potassium channel (human, UniProt Q12809)
Experiment: primary screen, population patch clamp on CHO cells stably expressing hERG
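Further: peak tail current of the secondary pulse compared with the same well before compound.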

Sequence of human ether-à-go-go-related gene (hERG) potassium channel (Q12809 whole entry, looked up): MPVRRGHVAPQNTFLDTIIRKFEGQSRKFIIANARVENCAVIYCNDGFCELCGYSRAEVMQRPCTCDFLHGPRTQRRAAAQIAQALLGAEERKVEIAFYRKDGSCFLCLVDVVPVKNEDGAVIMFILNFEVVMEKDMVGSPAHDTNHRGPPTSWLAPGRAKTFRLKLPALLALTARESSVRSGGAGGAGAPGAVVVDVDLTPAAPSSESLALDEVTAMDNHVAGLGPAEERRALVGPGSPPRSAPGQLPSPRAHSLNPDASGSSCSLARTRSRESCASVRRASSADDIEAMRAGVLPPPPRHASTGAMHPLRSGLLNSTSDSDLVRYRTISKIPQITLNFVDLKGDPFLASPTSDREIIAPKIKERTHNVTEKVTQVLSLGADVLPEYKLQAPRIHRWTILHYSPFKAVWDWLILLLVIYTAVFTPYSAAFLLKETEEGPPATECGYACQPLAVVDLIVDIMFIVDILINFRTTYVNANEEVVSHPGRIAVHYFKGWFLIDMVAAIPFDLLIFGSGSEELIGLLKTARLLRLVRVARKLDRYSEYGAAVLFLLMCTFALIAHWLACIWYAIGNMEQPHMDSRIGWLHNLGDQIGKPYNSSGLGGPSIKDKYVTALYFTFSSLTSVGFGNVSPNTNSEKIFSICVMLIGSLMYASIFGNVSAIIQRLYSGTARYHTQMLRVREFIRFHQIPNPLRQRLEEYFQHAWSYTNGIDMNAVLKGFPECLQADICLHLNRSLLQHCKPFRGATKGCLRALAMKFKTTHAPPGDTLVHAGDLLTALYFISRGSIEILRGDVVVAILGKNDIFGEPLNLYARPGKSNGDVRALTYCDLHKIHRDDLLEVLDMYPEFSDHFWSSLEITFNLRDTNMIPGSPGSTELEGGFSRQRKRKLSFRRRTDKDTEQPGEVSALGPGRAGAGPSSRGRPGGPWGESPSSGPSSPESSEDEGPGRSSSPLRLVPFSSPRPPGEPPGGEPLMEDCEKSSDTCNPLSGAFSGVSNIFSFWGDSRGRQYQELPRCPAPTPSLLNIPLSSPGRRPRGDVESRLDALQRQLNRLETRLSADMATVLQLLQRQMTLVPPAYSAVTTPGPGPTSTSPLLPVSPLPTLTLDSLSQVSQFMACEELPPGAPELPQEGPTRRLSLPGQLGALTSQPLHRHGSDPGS

Row | Compound | hERG current change (%, negative = inhibition) at 10uM
1 | Cc1cccc(C)c1N1C(=O)c2cccc([N+](=O)[O-])c2C1=O | -13.6%
2 | CN(C)S(=O)(=O)c1ccc(Cl)c(NC(=O)CN2C(=O)NC3(CCCC3)C2=O)c1 | 1.38%
3 | Cc1cccc(CN2CCN(C(C)C(=O)NC(C)c3ccccc3)CC2)c1.O=C(O)C(=O)O (stereo not shown) | -6.97%
4 | Cc1sc(NC(=O)CN2C(=O)NC3(CCCC3)C2=O)nc1-c1ccc(F)cc1 | -22.4%
5 | Cc1ccc(CN2C(=O)c3ccccc3NC23CCN(Cc2ccccc2)CC3)cc1 | 4.86%
6 | Cc1ccc2c(c1)nnn2C1CCN(C(=O)NCc2ccccc2)CC1 | -76.7%
7 | O=C(C1CC(=O)N(c2ccc(F)cc2)C1)N1CCN(c2ccc(F)cc2)CC1 (stereo not shown) | -73.1%
8 | O=C(c1ccc2nc(Cc3cccc(Cl)c3)oc2c1)N1CCC[C@H]1CO | 8.96%
9 | CC1CCCN(CCCNC(=O)c2cc3c(Cl)nc4ccccc4c3s2)C1 (stereo not shown) | -55.6%
10 | Nc1ccc(Sc2ccccc2)nc1 | -8.05%
11 | CCSc1nnc(NC(=O)C(CC)Oc2ccccc2)s1 (stereo not shown) | -15.7%
12 | Cc1ccc(C)c(SCc2noc(C(=O)NC(C)C)c2C(=O)O)c1 | 0.975%
13 | Cc1c(C(=O)N2CCCCC2)c(S(=O)(=O)NCc2ccc(Cl)cc2)c(C)n1C | -2.18%
14 | CSc1ncccc1C(=O)N1CCN(S(=O)(=O)c2ccc(C)cc2)CC1 | -15.2%
15 | C(=N\C(/N=C/c1ccco1)c1ccco1)/c1ccco1 | -5.1%
16 | Cc1ccccc1NC(=O)c1ccc(OCc2c(C)noc2C)cc1 | -5.45%
17 | CCCOc1ccc(NC(=O)Cc2ccc(S(=O)(=O)N3CCOCC3)s2)cc1OCCC | 6.32%
18 | CN(Cc1ccccc1)c1nc2c(c(=O)n(C)c(=O)n2C)n1CCSc1ncccn1 | -13.7%
19 | COc1ccc2[nH]c(C)c(CCNc3ccc(C(F)(F)F)cc3[N+](=O)[O-])c2c1 | -2.59%
20 | O=C(O)C(=O)O.O=S(=O)(c1ccc(F)cc1)N1CCN(CC(O)COc2ccccc2F)CC1 (stereo not shown) | -14.5%
21 | O=C(Cc1ccc(F)cc1)Nc1ccc(F)c([N+](=O)[O-])c1 | -10%
22 | O=C(Nc1cccc(Cl)c1)C1CCCCC1 | -9.14%

Row | Compound | hERG current change (%, negative = inhibition) at 10uM
23 | COc1ccc(CC(=O)NCc2cccc(CNC(=O)Cc3ccc(OC)c(OC)c3)c2)cc1OC | 23.6%
24 | O=C(O)Cn1c(C(F)(F)F)nc2ccccc21 | 7.6%
25 | Cc1ccc(S(=O)(=O)C2(C(=O)NCc3ccccc3Cl)CC2)cc1 | -15.2%
26 | CN1CCN(S(=O)(=O)c2cccc(C(=O)N(C)Cc3c(F)cccc3Cl)c2)CC1 | -13.8%
27 | O=C(Nc1ccc(NS(=O)(=O)c2ccccc2)cc1)c1ccc(Cl)cc1 | 4.9%
28 | CN(CC(=O)Nc1ccc(F)cc1)CC(=O)Nc1ccc(F)c(F)c1F | -28.9%
29 | C#CCOCCOCCOCCNc1nc(N2CCN(C(=O)C([C@@H](C)CC)n3cc(C(N)COC(=O)C(F)(F)F)nn3)CC2)nc(N2CCN(C(=O)[C@H](CCCCN)n3cc(C(N)CC(C)C)nn3)CC2)n1.Cl (stereo partly shown) | -2.2%
30 | C[N+](C)(C)CCCN(Cc1ccc2c(c1)OCO2)C(=O)NC1CCCCC1.[I-] | 17%
31 | Cn1c(N)c(C(=O)COC(=O)CN2C(=O)c3ccccc3C2=O)c(=O)n(C)c1=O | 0.291%
32 | O=C(CN1C(=O)COc2ccc(S(=O)(=O)N3CCOCC3)cc21)NCc1ccccn1 | -1.38%
33 | CC(C)CCNC(=O)NC(=O)CSc1nnc2ccccn12 | 15.6%
34 | Cn1c(NCc2ccco2)nc2ccccc21 | -10.2%
35 | CCN(CCNC(=O)C1CCN(S(=O)(=O)c2cccc3nsnc23)CC1)c1ccccc1 | -25.9%
36 | CNC(=S)NNC(=O)c1cc(C(C)(C)C)nn1Cc1ccc(F)cc1 | 14.6%
37 | O=C(C1CCCCN1S(=O)(=O)c1ccccc1)N1CCN(Cc2ccccc2)CC1 (stereo not shown) | -19.5%
38 | COc1cccc(CC(=O)Nc2ccc3c(c2)OC2(CCCC2)O3)c1 | -2.58%
39 | Cc1cccc(C(=O)NC(=S)N2CCN(c3ccc([N+](=O)[O-])cc3)CC2)c1 | -2.77%
40 | Cn1c(SCC(=O)Nc2ccccc2O)nnc1-c1ccco1 | -27.4%
41 | O=C(Cc1n[nH]c(=O)c2ccccc12)OCC(=O)c1ccc(F)c(F)c1 | 13.4%
42 | CN1CCN(C(=S)SCc2nc(N)nc(Nc3ccc(F)cc3)n2)CC1 | -18.4%
43 | CCCn1c(NC(=O)c2ccco2)nc2ccccc21 | 9.09%
44 | NS(=O)(=O)c1ccc(CCNC(=S)NC2CCCCC2)cc1 | -3.19%

Row | Compound | hERG current change (%, negative = inhibition) at 10uM
45 | CCNc1nc(NCC)n2c(SCC(=O)Nc3ccc(CC)cc3)nnc2n1 | 8.7%
46 | CC1Cc2ccccc2N1CC(=O)N(C)c1c(N)n(Cc2ccccc2)c(=O)[nH]c1=O (stereo not shown) | -6.81%
47 | O=C(NCc1ccc(F)cc1)N1CCc2ccccc2C1 | 2.77%
48 | Cc1ccccc1-n1c(SCC(N)=O)nc2sc(-c3ccccc3)cc2c1=O | -3.3%
49 | COc1ccc(OC)c(S(=O)(=O)Nc2ccc3c(c2)N(C(C)=O)CCC3)c1 | -10.4%
50 | COc1ccc(-c2noc(-c3ccccc3C(=O)NCc3ccco3)n2)cc1OC | -33.7%
51 | Cc1cc(=O)c(C(=O)O)cn1Nc1ccc(F)cc1 | 1.32%
52 | CC(Oc1ccc(Cl)cc1)C(=O)Nc1nccs1 (stereo not shown) | -6.48%
53 | CCCCCCCC(=O)OC(CN1CCCC1=O)C[NH+]1CCCCCC1.[Cl-] (stereo not shown) | -9.91%
54 | COCc1cc(C)nc(OCC(=O)N/N=C/c2ccc(-c3cc([N+](=O)[O-])ccc3Cl)o2)c1C#N | 18%
55 | Cc1cccc(NC(=S)Nc2cccc(C)n2)n1 | 14.5%
56 | Cc1ccccc1OCc1n[nH]c(=S)n1Cc1ccccc1 | 15.1%
57 | Cc1nn(CCCC(=O)NCc2ccc(F)cc2)c(C)c1[N+](=O)[O-] | -47.6%
58 | CCOC(=O)c1cc(-c2ccccc2C)nn1Cc1cc(CC)no1 | -6.45%
59 | CCn1c2ccccc2c2cnc(N=CN(C)C)c(C#N)c21 | -24%
60 | CC1(C)CC(=O)C(CS(=O)(=O)c2ccccc2)=C(Cl)C1 | 12.9%
61 | Cc1nc(/C=C\C(=O)O)c2cc(C)oc2n1 | 6.6%
62 | CN(C)c1ccc(/C=N/Nc2cccc(C(=O)O)c2)cc1 | 24.2%
63 | COc1ccc(Nc2cccccc2=O)cc1 | -24%
64 | Cc1cc(NC(=O)CCC(=O)N(CCC(C)C)C(C(=O)NCC2CCCO2)c2ccccc2C)no1 (stereo not shown) | 17.5%
65 | O=C(Cn1nc(-c2ccccc2)nc1-c1ccccc1)OC1CCCCC1 | 7.88%
66 | CC(=O)c1c(C)[nH]c(C(=O)OCC(=O)Nc2nnc(-c3ccccc3)o2)c1C | 9.78%

Row | Compound | hERG current change (%, negative = inhibition) at 10uM
67 | CCOC(=O)CSc1ncnc2c1sc1nc(N3CCOCC3)c3c(c12)CCCC3 | 12.7%
68 | N#CCCN(CCC#N)S(=O)(=O)c1ccc(C(=O)Nc2nc(-c3ccccc3)c(C(=O)c3ccccc3)s2)cc1 | -0.441%
69 | COCCn1c(N)c(Sc2ccc(Cl)cc2)c(=O)[nH]c1=O | 6.8%
70 | CC(C)c1ccc(NC2CCCN(C(=O)c3cccs3)C2)cc1 (stereo not shown) | -10.8%
71 | CCN1C(=O)c2ccc(C(=O)O)cc2C1=O | 9.2%
72 | Cc1cc(C(=O)COC(=O)c2ccc(CO)cc2)c(C)n1CC1COc2ccccc2O1 (stereo not shown) | -0.0441%
73 | Cc1ccc(NC(=O)CCC(=O)c2ccc(Cl)s2)nc1 | 11.7%
74 | O=C(Cn1nnc2ccccc2c1=O)Nc1ccc(S(=O)(=O)N2CCOCC2)cc1 | -0.303%
75 | CN1C(=O)C2C=CC1C1C(=O)N(c3ccccc3)C(=O)C21 (stereo not shown) | 11.5%
76 | O=C(c1ccc(N2CCOCC2)c([N+](=O)[O-])c1)N1CCN(S(=O)(=O)c2cccs2)CC1 | -47.3%
77 | COc1ccccc1S(=O)(=O)Cc1ccc(C(=O)NC2CCCCC2)o1 | -6.75%
78 | CC(C)CC(NC(N)=O)C(=O)Nc1ccc(Cl)c(Cl)c1 (stereo not shown) | 2.84%
79 | O=c1[nH]c2cc([N+](=O)[O-])c(NCCO)c([N+](=O)[O-])c2[nH]1 | 30.2%
80 | O=C(C1CCN(S(=O)(=O)c2cccnc2)CC1)N1CCN(c2ccc(Cl)cc2)CC1 | -56.2%
81 | O=C(NCCNS(=O)(=O)c1ccccc1Cl)c1cc(OCC(F)(F)F)ccc1OCC(F)(F)F | -4.88%
82 | COc1ccc2[nH]c(=O)c(CN(Cc3cccs3)C(=S)Nc3cccc(C)c3)cc2c1 | 6.6%
83 | CC(NC(=O)CN1CCC(C(N)=O)CC1)c1ccccc1 (stereo not shown) | 20.6%
84 | N#Cc1cc(Nc2c(N)nc[nH]c2=O)c([N+](=O)[O-])cc1C#N | 8.95%
85 | COc1ccc(-c2csc(NC(=O)CN3C(=O)CCC3=O)n2)cc1 | -11%
